Source: the supplement of paper PMC10320760
Single values of this set are uncertain.

B1: Ydj1; a variant is named by its letters at X, in order (parent)
chain: MVKETKFYDILGVPVTATDVEIKKAYRKCALKYHPDKNPSEEAAEKFKEASAAYEILSDPEKRDIYDQFGEDGLSGAGGAGGFPGGGFGFGDDIFSQFFGAGGAQRPRGPQRGKDIKHEISASLEELYKGRTAKLALNKQILCKECEGRGGKKGAVKKCTSCNGQGIKFVTRQMGPMIQRFQTECDVCHGTGDIIDPKDRCKSCNGKKVENERKILEVHVEPGMKDGQRIVFKGEADQAPDVIPGDVVFIVSERPHKSFKRDGDDLVYEAEIDLLTAIAGGEFALEHVSGDWLKVGIVPGEVIAPGMRKVIEGKGMPIPKYGGYGNLIIKFTIKFPENHFTSEENLKKLEEILPPRIVPAIPKKATVDECVLADFDPAKYNRTRASRGGANYDSDEEEQGGEGVQCXXX

Variants of: B1
Assay: enrichment factor, frequency at 37 °C / frequency at 25 °C (thermotolerance selection) (ratio); higher = more growth at 37 °C, higher likelihood of farnesylation
Conditions: with Saccharomyces cerevisiae ydj1Δ (yWS304); selective temperature 37 °C; reference temperature 25 °C

Variant	enrichment factor
LYI	1.89
LYF	1.95
LYE	2.3
LYM	2.78
LYN	2.55
LYC	0.988
LYP	0.124
LYA	1.56
LYK	0.153
LYL	1.3
MYN	2.17
MYF	1.39
MYL	1.5
MYG	1.44
MYI	1.48
MYE	1.16
MYA	1.28
MYH	1.02
MYD	0.224
MYM	1.99
MYK	0.2
MYC	0.984
MYP	0.17
FWV	1.88

Variant	enrichment factor
FWY	0.961
FWW	1.33
RWY	1.24
RWW	0.995
RWV	1.41
RWT	1.86
VWV	1.29
VWY	1.45
VWW	1.41
VWT	1.01
QYI	1.98
QYL	1.36
QYP	0.212
QYH	1.91
QYA	2.8
QYN	2.36
QYM	1.09
QYF	1.7
QYG	1.98
QYC	2.43
QYD	0.54
QYK	0.296
QYE	2.07
DYL	0.333

Variant	enrichment factor
DYF	1.6
DYA	1.91
DYP	0.139
DYM	1.32
DYN	0.29
DYE	0.291
DYD	0.159
DYK	0.136
DYG	0.425
DYC	0.753
DYH	0.157
DYI	0.859
MWV	1.19
MWW	1.51
MWY	1.19
MWT	1.23
DWW	0.395
DWY	0.311
DWV	0.689
PYH	0.962
PYG	1.75
PYI	1.32
PYD	0.25
PYN	1.86

Variant	enrichment factor
PYL	0.991
PYP	0.215
PYC	0.707
PYA	1.22
PYF	1.55
PYK	0.155
PYM	0.573
PYE	1.57
EWV	0.687
EWY	1.56
EWW	1.33
GWW	0.616
GWV	1.84
GWY	0.368
IWW	1.13
IWT	0.796
IWY	0.989
IWV	0.772
VYP	0.0893
VYK	0.67
VYN	1.75
VYE	1.92
VYG	2.25
VYC	2.55

Variant	enrichment factor
VYL	2.27
VYD	1.55
VYI	1.48
VYH	3.38
VYA	1.45
VYF	1.16
VYM	1.39
HYK	0.256
HYL	1.01
HYN	2.22
HYM	1.74
HYD	0.441
HYP	0.537
HYE	1.71
HYI	1.67
HYC	2.53
HYF	1.84
HYA	3.19
HYH	1.16
HYG	1.83
YYC	2.16
YYA	4.39
YYM	1.79
YYG	1.69

Variant	enrichment factor
YYL	1.36
YYN	1.49
YYD	0.432
YYK	0.122
YYI	1.84
YYH	0.574
YYE	0.483
YYF	1.5
GYP	0.185
GYL	1.15
GYD	0.145
GYM	1.77
GYH	0.979
GYI	1.51
GYC	0.836
GYN	1.36
GYK	0.11
GYF	0.955
GYG	1.16
GYA	2.29
GYE	0.443
SYH	1.17
SYE	1.2
SYI	1.45

Variant	enrichment factor
SYD	0.288
SYK	0.139
SYN	1.86
SYA	1.95
SYC	1.1
SYL	0.934
SYP	0.157
SYG	1.79
SYF	1.82
SYM	1.3
TYM	1.38
TYA	4.49
TYE	1.99
TYN	1.96
TYH	1.96
TYI	1.73
TYG	1.62
TYK	0.172
TYD	0.544
TYL	1.39
TYC	1.56
TYF	1.69
TYP	0.12
